No end group written: not given here.

One test concerns the target ScSte2 (Saccharomyces cerevisiae, UniProt D6VTK4). Put plainly: ScSte2 biosensor dose-response, ymTurquoise2 readout, no protease (incl. ScPep alanine scan, yTC391). The following applies: ymTurquoise2 fluorescence, Hill function best-fit ± standard error. In kind it is cell-based.
The test system of test [1] is SjSte2 with peptide proteases. As to the method: All measurements were performed in biological triplicate.

Sequence of ScSte2 (D6VTK4 whole entry): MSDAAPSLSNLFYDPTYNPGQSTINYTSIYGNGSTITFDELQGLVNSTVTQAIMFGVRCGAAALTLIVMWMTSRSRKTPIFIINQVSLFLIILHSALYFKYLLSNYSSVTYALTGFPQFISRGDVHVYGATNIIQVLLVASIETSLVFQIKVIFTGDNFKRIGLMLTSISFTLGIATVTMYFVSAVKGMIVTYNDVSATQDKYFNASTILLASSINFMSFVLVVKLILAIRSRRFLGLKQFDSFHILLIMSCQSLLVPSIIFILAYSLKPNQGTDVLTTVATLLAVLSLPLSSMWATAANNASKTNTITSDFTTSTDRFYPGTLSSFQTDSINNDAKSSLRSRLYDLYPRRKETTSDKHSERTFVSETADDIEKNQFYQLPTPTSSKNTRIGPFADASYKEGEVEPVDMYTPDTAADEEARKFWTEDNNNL

On ScSte2, AHWLQLKPGQPMY [ScPep1A] returned a Bottom of 6.4 ± 3.4 A.U and a Top of 320 ± 10 A.U. VSDRVKQMLSHWWNERNPDTANL [SjPep]: in test [1], the “shift of apparent EC50 by complementary protease” value is “more than one order of magnitude”. On ScSte2, WAWLQLKPGQPMY [ScPep2A] gave a Bottom of 4.9 ± 2.1 A.U and a Top of 270 ± 10 A.U. The like results for WHALQLKPGQPMY [ScPep3A] were, in that order, 4.2 ± 1.6 A.U and 280 ± 10 A.U. For WHWLALKPGQPMY [ScPep5A], at ScSte2, the Bottom amounted to 5.0 ± 2.3 A.U and the Top was 380 ± 10 A.U. Take WHWLQAKPGQPMY [ScPep6A]: at ScSte2, the Bottom was 3.9 ± 2.3 A.U and the Top is 310 ± 10 A.U. With WHWLQLAPGQPMY [ScPep7A], on ScSte2, the Bottom was determined as 10 ± 4 A.U and the Top is on record as 400 ± 10 A.U. In the same order, the values of WHWLQLKAGQPMY [ScPep8A] are 4.5 ± 1.7 A.U and 430 ± 10 A.U.

On ScSte2, WHWLQLKPAQPMY [ScPep9A] had a Bottom of 3.9 ± 2.1 A.U and a Top of 370 ± 10 A.U. In the same order, the values of WHWLQLKPGAPMY [ScPep10A] are 4.9 ± 2.4 A.U and 380 ± 10 A.U. As to WHWLQLKPGQAMY [ScPep11A], at ScSte2, the Bottom amounted to 5.3 ± 3.7 A.U and the Top worked out at 410 ± 10 A.U. In the same order, the values of WHWLQLKPGQPAY [ScPep12A] are 5.9 ± 4.7 A.U and 410 ± 10 A.U.

Consider WHWLQLKPGQPMA [ScPep13A], for which, at ScSte2, the Bottom was found to be 4.9 ± 2.5 A.U and the Top came out at 360 ± 10 A.U.

The values are drawn from patent US20240368664A1, “LIVE YEAST BIOSENSORS AND METHODS OF USE THEREOF” (priority 2021, published 2024).
